Reference: article PMC4336329 (PLoS ONE, 2015)
The campaign covered roughly 310,000 compounds. About 2,200 (0.71%) showed an effect of 50% or more. Effects have a minus sign here. This is one part of the list.

molecular target: human ether-à-go-go-related gene (hERG) potassium channel (human, UniProt Q12809); experiment: primary screen, population patch clamp on CHO cells stably expressing hERG
Sequence (Q12809 whole entry, looked up): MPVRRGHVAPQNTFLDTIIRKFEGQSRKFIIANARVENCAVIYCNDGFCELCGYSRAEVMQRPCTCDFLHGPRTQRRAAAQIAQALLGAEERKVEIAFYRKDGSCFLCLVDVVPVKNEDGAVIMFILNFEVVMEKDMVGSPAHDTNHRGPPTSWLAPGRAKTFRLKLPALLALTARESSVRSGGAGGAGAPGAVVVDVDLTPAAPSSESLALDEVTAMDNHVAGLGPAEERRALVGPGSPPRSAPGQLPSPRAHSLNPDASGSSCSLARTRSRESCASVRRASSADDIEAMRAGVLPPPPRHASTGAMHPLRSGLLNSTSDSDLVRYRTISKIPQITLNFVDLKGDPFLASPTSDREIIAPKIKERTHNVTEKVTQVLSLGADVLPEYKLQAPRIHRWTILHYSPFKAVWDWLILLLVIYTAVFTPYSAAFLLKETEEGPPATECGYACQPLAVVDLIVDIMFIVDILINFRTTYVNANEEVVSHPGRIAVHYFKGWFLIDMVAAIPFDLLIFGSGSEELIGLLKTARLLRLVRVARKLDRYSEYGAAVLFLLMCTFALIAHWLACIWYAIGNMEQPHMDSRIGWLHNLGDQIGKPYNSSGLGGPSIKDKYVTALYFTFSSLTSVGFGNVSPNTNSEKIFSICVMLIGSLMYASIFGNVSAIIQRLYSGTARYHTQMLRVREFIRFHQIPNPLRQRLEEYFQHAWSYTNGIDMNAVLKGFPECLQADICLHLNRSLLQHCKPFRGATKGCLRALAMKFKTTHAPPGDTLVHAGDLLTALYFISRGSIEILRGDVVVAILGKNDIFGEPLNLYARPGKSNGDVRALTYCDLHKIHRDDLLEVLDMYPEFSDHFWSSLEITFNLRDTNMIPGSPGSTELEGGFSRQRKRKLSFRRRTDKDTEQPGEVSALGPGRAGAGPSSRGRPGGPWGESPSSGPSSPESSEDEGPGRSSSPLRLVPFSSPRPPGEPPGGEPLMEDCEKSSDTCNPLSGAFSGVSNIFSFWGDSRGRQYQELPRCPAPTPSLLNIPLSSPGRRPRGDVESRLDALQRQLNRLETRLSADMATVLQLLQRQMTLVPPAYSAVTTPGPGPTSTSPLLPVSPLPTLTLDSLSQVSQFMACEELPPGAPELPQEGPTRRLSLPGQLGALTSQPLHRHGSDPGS

Row | SMILES | hERG current change (%, negative = inhibition) at 1uM [%]
1 | O=C(CCCOc1ccc(Cl)cc1Cl)Nc1ncccn1 | 15.6
2 | Cc1c(NC(=O)c2ccc(N3C(=O)C4C5C=CC(C5)C4C3=O)cc2)c(=O)n(-c2ccccc2)n1C (stereo not shown) | 20.4
3 | COc1ccc(Cl)cc1S(=O)(=O)N1CCC(C(=O)NCC2CCCO2)CC1 (stereo not shown) | -11.3
4 | Cc1ccc(S(=O)(=O)CCSc2n[nH]c(=O)n2-c2ccccc2)cc1 | 3.43
5 | CCN(CC)Cc1c(C(=O)N/N=C/c2ccco2)nnn1-c1nonc1N | 5.64
6 | COc1ccc(OC)c(NC(=O)CN2CCC(NC(=O)c3ccccc3C)CC2)c1 | -4.31
7 | CC(CNC(=O)c1ccc(C#N)cc1)NC(=O)c1ccc(C#N)cc1 (stereo not shown) | -81.9
8 | CC1(C)CC(=O)c2sc(NC(=O)C3COc4ccccc4O3)nc2C1 (stereo not shown) | 9.32
9 | CCCC#CCN1CCN(C23CC4CC(CC(C4)C2)C3)CC1 | 7.17
10 | COc1ccc(N2CCN(C(=O)c3cc4ccccc4o3)CC2)cc1 | 19.4
11 | Cc1ccc2c(c1)C1CN(C)CCC1N2C(=O)COc1ccc(S(=O)(=O)N2CCOCC2)cc1 (stereo not shown) | 1.42
12 | COCC(C)NCc1cccc([N+](=O)[O-])c1.O=C(O)C(=O)O (stereo not shown) | -2.04
13 | Cc1ccc(CN2CCNC(=O)C2CC(=O)N2CCN(c3ncccn3)CC2)o1 (stereo not shown) | 12.4
14 | Cn1ccc(-c2ccccc2)c(C#N)c1=O | 8.97
15 | COc1ccc(OC)c(NC(=O)C2CCCCC2)c1 | 10.7
16 | c1ccc2c(c1)CCN(Cc1nnnn1Cc1ccc3c(c1)OCO3)C2 | 16.7
17 | Cc1c(C(=O)O)sc(=S)n1-c1ccccc1 | 10.3
18 | CCOC(=O)N1CCN(c2c(-c3ccc(C(C)C)cc3)c(=O)c2=O)CC1 | -0.0588
19 | CCCCCCCCCCCC(=O)N/N=C/c1ccco1 | -8.44
20 | COc1ccccc1Oc1coc2cc(O)ccc2c1=O | 6.45
21 | Cc1ccc(Cc2c(C)nc3nc(SCC(=O)N4CCC5(CC4)OCCO5)nn3c2C)cc1 | -14.5
22 | NC1=NC(=O)S/C1=C\c1ccc(O)cc1 | 11.4

Row | SMILES | hERG current change (%, negative = inhibition) at 1uM [%]
23 | COc1ccccc1NC(=O)COC(=O)c1cnccn1 | 14.9
24 | CCOc1cc(-c2c(C#N)c(=O)[nH]c3c2c(C)nn3-c2ccc(F)cc2)ccc1O | 13.8
25 | O=C(C1CCC1)N1CCc2cc(S(=O)(=O)N3CCc4ccccc4C3)ccc21 | 10.3
26 | O=C(O)c1ccc(NC(=S)Nc2ccccc2)cc1 | 11.4
27 | N#Cc1c(N)[nH]c(=S)c(C#N)c1-c1ccccc1 | 9.67
28 | NC(=O)c1ccc2c(=O)n3c(-c4cc(Cl)c(N)c(Cl)c4)csc3nc2c1 | 0.694
29 | O=C(NNC(=O)c1cccnc1)NC1CCCCC1 | 19.2
30 | COc1ccc(N=C2NC(=O)C(CO)(CO)S2)cc1 | 8.51
31 | COCCCn1c(SCC(=O)NCc2ccco2)nc2sc3c(c2c1=O)CCC3 | -17.9
32 | Nc1ccc2nc(SCC(=O)N3CCN(c4ccccc4)CC3)sc2c1 | 11
33 | O=C(NC1CCCC1)C(c1ccsc1)N(CCc1ccccc1)C(=O)Cc1cccs1 (stereo not shown) | 14.8
34 | O=[N+]([O-])c1ccc2nc(CCCc3nc4ccc([N+](=O)[O-])cc4[nH]3)[nH]c2c1 | 1.17
35 | Cc1ccc(S(=O)(=O)NNC(=O)Nc2ccccc2F)c(C)c1 | 3.11
36 | CC1C2NC(=O)N(Cc3ccccc3)C1(C)Oc1ccccc12 (stereo not shown) | 6.37
37 | O=C(COC(=O)/C=C/c1cccc([N+](=O)[O-])c1)NCC1CCCO1 (stereo not shown) | 4.41
38 | CCC(C)N(C(=O)c1csnn1)C(C(=O)NC1CCCC1)c1ccc(F)cc1 (stereo not shown) | 2.92
39 | O=C(N/N=C\c1cccc(Cl)c1)c1ccc(Cn2cc(Br)c([N+](=O)[O-])n2)o1 | -20.8
40 | O=C(COC(=O)Cn1cnc2ccccc21)NCCc1ccccc1 | 6.43
41 | O=C1C2CCCN2C(=O)N1CCCN1CCN(c2ccc([N+](=O)[O-])cc2)CC1 (stereo not shown) | -63.3
42 | Cc1ccccc1N=Nc1c(O)[nH]c2ccccc12 | 10.5
43 | COc1ccc(NC(=O)CN(C)CC(=O)c2[nH]c(C)c(C(C)=O)c2C)cc1 | 3.25
44 | O=C(Nc1cccc(C(=O)N2CCCc3ccccc32)c1)c1ccccc1 | 4.91

Row | SMILES | hERG current change (%, negative = inhibition) at 1uM [%]
45 | Cc1ccccc1C(=O)NC1CCN(CC(=O)Nc2ccccc2)CC1 | 5.41
46 | CN(c1ccc(F)cc1)S(=O)(=O)c1ccc(Cl)c(C(=O)Nc2ccc3c(c2)CCC3)c1 | 7.66
47 | COC(=O)c1ccc(C(=O)OC)c(NC(=O)C(C)C)c1 | 8.67
48 | COc1ccc(NC(=O)c2ccccc2NC(=O)c2ccccc2C(=O)O)c(OC)c1 | 20.1
49 | CCOC(=O)c1cc(C)sc1/N=C/C1C(=O)CCCC1=O | 7.95
50 | COc1ccc(C(=O)NCc2nnc(SCC(=O)c3ccccc3)o2)cc1 | 15.3
51 | Cc1ccc(C)c(S(=O)(=O)N2CCCC2CNC(=O)c2ccc([N+](=O)[O-])cc2)c1 (stereo not shown) | -45.8
52 | COc1ccc(CNC(=O)c2cc(=O)c3ccc(C)c(C)c3o2)cc1 | 13.6
53 | CCC(C)NC(=O)c1cn(CC)c2ccc(S(=O)(=O)N(C)C)cc2c1=O (stereo not shown) | 4.93
54 | COc1ccccc1N1CCN(C(=O)c2sc3ncnc(N4CCN(c5ccccn5)CC4)c3c2C)CC1 | 7.33
55 | CCOC(=O)c1ccc(N=C2SC(C(=O)NC)CC(=O)N2Cc2ccc(F)cc2)cc1 (stereo not shown) | 1.82
56 | CCN1C(=O)/C(=C\N(C)C)S/C1=N\S(=O)(=O)c1ccc(C)cc1 | 7.58
57 | CN(NS(=O)(=O)c1ccc(F)cc1)c1ncc(C(F)(F)F)cc1Cl | 0.312
58 | CC(=O)c1ccc(N2CCN(c3ccc(S(=O)(=O)NCCCN(C)C)cc3[N+](=O)[O-])CC2)cc1 | 0.801
59 | O=C(Cc1ccc(O)cc1)N/N=C/c1cccs1 | 13.4
60 | Cc1ccccc1NC(NC(=O)c1cccnc1)C(Cl)(Cl)Cl (stereo not shown) | 9.23
61 | O=C(NN(c1ccccc1)c1ccccc1)c1ccccc1F | 18.6
62 | Cl.OCCNCc1cc(Br)ccc1OCc1ccc(F)cc1 | -3.17
63 | Cc1ccccc1C(=O)N1CCC(C(=O)OCC(=O)Nc2cccc([N+](=O)[O-])c2C)CC1 | -3
64 | COc1ccc(CCNC(=O)C(C)OC(=O)c2nsc(Cl)c2Cl)cc1OC (stereo not shown) | 8.84
65 | CC(CC(=O)NCCc1ccc(F)cc1)c1ccccc1 (stereo not shown) | 8.58
66 | Cc1nc2sc3c(c2c2nnc(SCC(=O)NCc4ccco4)n12)CCCC3 | -2.85

Row | SMILES | hERG current change (%, negative = inhibition) at 1uM [%]
67 | COc1ccc(N2C(C(C)=O)=NN(c3ccccc3)C2c2cccs2)cc1 (stereo not shown) | 11.5
68 | CCOc1ccc(-c2nc(-c3ccncc3)no2)cc1OCC | 13.7
69 | Cc1ccc(F)cc1NC(=O)Cc1ncc(C(F)(F)F)cc1Cl | 4.55
70 | CC(Oc1ccc(S(=O)(=O)N2CCCC2)cc1[N+](=O)[O-])C(=O)NC(C)c1ccccc1 (stereo not shown) | 5.72
71 | CCOc1ncccc1C(=O)OCC(=O)Nc1ccc2c(c1)OCO2 | 11.3
72 | NS(=O)(=O)c1ccc(CCNC(=O)CSc2nc3ccsc3c(=O)n2C2CC2)cc1 | 12.5
73 | COc1ccccc1-c1cc2nc(C)c(CCC(=O)NC(C)CCc3ccco3)c(C)n2n1 (stereo not shown) | -9.4
74 | CNc1ccccc1C(=O)OCC(=O)c1ccc(F)cc1 | 7.17
75 | Cc1ccc(C)c(NC(=O)[C@@H]2CCCN2S(=O)(=O)c2ccccc2F)c1 | 31.4
76 | O=C(C1CCC1)N1CCN(S(=O)(=O)c2ccc([N+](=O)[O-])cc2)CC1 | -15.3
77 | Cc1ccc2c(c1)N(C(=O)CCC(=O)NC1CCCCCC1)CCO2 | 2.91
78 | COCCC(=O)N1CCC(Oc2ccc(C(=O)NC3CCCCC3)cc2)CC1 | 10.8
79 | CCOc1cc(CN2CCN(Cc3ccc(C)o3)C(CCO)C2)ccc1OC (stereo not shown) | 8.92
80 | CNC(=O)CSc1nc(-c2ccccc2)c(-c2ccccc2)o1 | 8.79
81 | COc1cc([N+](=O)[O-])cc(/C=N/NC(=O)C(C)Nc2cccc(C)c2)c1O (stereo not shown) | 17.1
82 | O=C(/C=C/c1ccc(F)cc1)NCc1ccco1 | 1.6
83 | O=C(CSc1nccn1-c1ccccc1)NCc1ccc2c(c1)OCO2 | 1.01
84 | CC1CC(C)CN(C(=O)COC(=O)c2cc3ccccc3cc2O)C1 (stereo not shown) | 8.88
85 | CC(=O)N(C1=NCCCS1)c1ccccc1F | -0.361
86 | CCO[C@@H]1OC(C(=O)Nc2ccccc2)=C[C@H](c2ccc(Br)cc2)[C@H]1CCCO | 14.4
87 | CC1CSc2nc3sc4c(c3c(=O)n21)CCCC4 (stereo not shown) | 7.6
88 | O=C(c1c(F)cccc1F)N1CCCC1 | 2.7
